The values below come from the RNAGym collection of RNA variant scans (doi:10.7554/elife.90254).

The source gives no read counts; variants with many changes may rest on few reads.

The labels stand for the following.
B1: LINE1-mini (parent)
chain: GGCAGAGCUCAACACAGCGUGGCAAAGUGGCUGUGGCUAGACUGCC

In this series the parent is B1. In words: self-cleavage, relative activity (ratio to wild type); higher = more cleavage; in vitro, sequencing; the parent is a self-cleaving ribozyme.
On to GGCAGAGCUCCACACAGCGUGGCAAAGUGGCUGUGGCUAAAGUGCC [A11C G40A C42G], for which the self-cleavage was 0.03.

As to GGCAGAGCUCCACACAGCGUGGCAAAGUGGCUGUGUCUAGCCUGCC [A11C G36U A41C], the self-cleavage came out at 0.02. In the case of GGCAGAGCUCGAUACAGCGUGCCAAAGUCGCUGUGGCUAGACUUCC [A11G C13U G22C G29C G44U], the self-cleavage is 0.01.

Turning to GGCAGAGCUCGACUCGGCGUGGCAAAGUGGCUGAGGCUAGACUGCC [A11G A14U A16G U34A], the self-cleavage worked out at 0.02. Take GGCAGAGCUCCACACAGCGUGGCAAAGUGGCUGUGUCUACACUGCC [A11C G36U G40C]: the self-cleavage came out at 0.02.

In the case of GGCAGAGCUCGAUACAGCGUGUCAAAGUGGCUGUGGCUAGACUGCC [A11G C13U G22U], the self-cleavage is 0.01. Consider GGCAGAGCUCGUCACAGCCUGGCAAAGUGGCUGUGGCUAGACUGCC [A11G A12U G19C], for which the self-cleavage was found to be 0.04. GGCAGAGCUCCACACAGCGUGGCAAAGUGGCCGUCCCUAGACUGCC [A11C U32C G35C G36C]: the self-cleavage was 0.01. With GGCAGAGCUCGUCACAUCGUGGCAAAGUUGCUGUGGCUAGACUGCC [A11G A12U G17U G29U], the self-cleavage stood at 0. For the variant GGCAGAGCUCGACACAGCGUGGCACAGUGGCUGAGGCUAGACUGCC [A11G A25C U34A], the self-cleavage was 0.02. In the case of GGCAGAGCUCGACAAAUCUUGGCAAAGUUGCUGUGGCUAUACUGCC [A11G C15A G17U G19U G29U G40U], the self-cleavage amounted to 0.02.

Consider GGCAGAGCUCCACACAGCGAGGCAAAGUGGCUGUGACUAGACUCCC [A11C U20A G36A G44C], for which the self-cleavage was 0.02. With GGCAGAGCUCGACGCAGCGUGGCAAACUGGCUGUGGGUAGACUGCC [A11G A14G G27C C37G], the self-cleavage is 0.01.

On to GGCAGAGCUCCACACAGCGUGGCAAAGUGGCAGUGGCUAGACUGCU [A11C U32A C46U], for which the self-cleavage is 0.

In the case of GGCAGAGCUCGACACUGCGUGGCAAAGUGGCUGUGGGUCGUCUGCC [A11G A16U C37G A39C A41U], the self-cleavage came to 0. As to GGCAGAGCUCGACAAAGGGUGGCAAAGUGGCUGUGGGUAGACUGCC [A11G C15A C18G C37G], the self-cleavage was determined as 0. The same measure for GGCAGAGCUCGACAAAGCGUGGCAAAGUCGCUGUGGCUAGACUACC [A11G C15A G29C G44A]: 0; for GGCAGAGCUCCACACAGCGUGGCAAAGUGGCUGUGGCUACACUGCG [A11C G40C C46G]: 0.02; for GGCAGAGCUCGCAACCGCCUGGCAAAGUAGCUGUGGCUAAACUACC [A11G A12C C13A A16C G19C G29A G40A G44A]: 0.02. Regarding GGCAGAGCUCGAGACAGCGUGGUAAAGUGGCUGUGGCUAGACUGCC [A11G C13G C23U], the self-cleavage came to 0. On to GGCAGAGCUCGUCACAGCGUGGCAAAGCUGCUGUGGCUAGACUGCC [A11G A12U U28C G29U], for which the self-cleavage was 0.02. For GGCAGAGCUCGACCAAGCGUGGCAAAUUGGCUGUGGCUUGACUGCC [A11G A14C C15A G27U A39U], the self-cleavage amounted to 0. With GGCAGAGCUCGACACAGCGUGGCAACGUGGCGGUGGCUAGACUGCC [A11G A26C U32G], the self-cleavage was 0.02. Consider GGCAGAGCUCGACGCAGCCUGAGAAAGUGGCUGUGGCUAGACUGCC [A11G A14G G19C G22A C23G], for which the self-cleavage is 0.01.

For the variant GGCAGAGCUCCACACAGCGUGGCAAAGUGGCUGUGGCCAGACUACG [A11C U38C G44A C46G], the self-cleavage was 0.

GGCAGAGCUCGACACAGCGUGGCAUAGUGUCUGGGGCUAGACUGCC [A11G A25U G30U U34G]: the self-cleavage stood at 0.

For GGCAGAGCUCGACACUGCGUGGCAAAAAGGCUGUGGCUAGACUGCC [A11G A16U G27A U28A], the self-cleavage was 0.08.

Turning to GGCAGAGCUCCACACAGCGUGGCAAAGUGGCUGCGGCUAGACUGCU [A11C U34C C46U], the self-cleavage is 0.1. Turning to GGCAGAGCUCGACACCGCGUGGCAAACUGGCUGUGGCUAGACUACC [A11G A16C G27C G44A], the self-cleavage was 0.03. In the case of GGCAGAGCUCGAAACAGCGUUGCAAAGUGGCAGUGGCUAGACUGCC [A11G C13A G21U U32A], the self-cleavage worked out at 0.01.

As to GGCAGAGCUCCACACAGCGUGGCAAAGUGGCUGUGUCUAGACUGAC [A11C G36U C45A], the self-cleavage was determined as 0.01. The same measure for GGCAGAGCUCGACACAGCGUGGCAACGCGAACGCGGCAAUACUGCC [A11G A26C U28C G30A C31A U32C U34C U38A G40U]: 0. As for GGCAGAGCUCCACACAGCGUGGCAAAGAGGCUGUGGCGAGACUGCC [A11C U28A U38G], the self-cleavage is 0.01. Turning to GGCAGAGCUCCACACAGCGUGGCAAAGUGGCUGUUGCGAGACUGCC [A11C G35U U38G], the self-cleavage was determined as 0.

Consider GGCAGAGCUCCACACAGCGGGGCAAAGUGGCGGUGGCUAGACUGCC [A11C U20G U32G], for which the self-cleavage worked out at 0.02. Consider GGCAGAGCUCGACACAGCGUGGCGAAGUGCCUGUGGCUAGACUGCC [A11G A24G G30C], for which the self-cleavage is 0.02.

On to GGCAGAGCUCCACACAGCGGGGCAAUGUGGCUGUGGCUAGACUGCC [A11C U20G A26U], for which the self-cleavage was 0.02. With GGCAGAGCUCGACAAAGCGUGGCAGAGUGGCUGUGUCUAGACUGCC [A11G C15A A25G G36U], the self-cleavage was determined as 0.01. Next, GGCAGAGCUCGACACAGCGUGGCAUAGUGGCUGUGGCUAGACUGGC [A11G A25U C45G]: 0.03; GGCAGAGCUCGACACAGCGUGGCAAUGUUGCUGUAGCUAGACUGCC [A11G A26U G29U G35A]: 0.02. Take GGCAGAGCUCCACACAGCGUGGCAAAGUGGCUGUUGCUAGGCUGCC [A11C G35U A41G]: the self-cleavage came out at 0.01. As for GGCAGAGCUCCACACAGCGUGGCAAAGUGUCUGUAGCUAGACUGCC [A11C G30U G35A], the self-cleavage was 0.02. For the variant GGCAGAGCUCGACACAGCGUGGCAUAGUGGCUGUGGUUAGACUGGC [A11G A25U C37U C45G], the self-cleavage was 0.01.

For the variant GGCAGAGCUCCACACAGCGUGGCAAAGUGGCAGUGGCUACACUGCC [A11C U32A G40C], the self-cleavage is 0.02.

Regarding GGCAGAGCUCGACACAGCGUGGCUAAGUGGCUGUGGCUAGUCGGCC [A11G A24U A41U U43G], the self-cleavage was determined as 0.03.

Turning to GGCAGAGCUCGACACAGCGUGGCAGAGUGGCUGUGGCUAAACUGCC [A11G A25G G40A], the self-cleavage worked out at 0.04. In the case of GGCAGAGCUCGACACAGCGUGGCAACGUGGCUGUGGCCAGACUGCC [A11G A26C U38C], the self-cleavage stood at 0.02. On to GGCAGAGCUCCACACAGCGCGGUAAAGUGGCUGUAGCUUGACUGCC [A11C U20C C23U G35A A39U], for which the self-cleavage worked out at 0.01. The same measure for GGCAGAGCUCGACAAAGCGGGGCAAAAUGGCUGUGGCUGGACUGCC [A11G C15A U20G G27A A39G]: 0.01. Next, GGCAGAGCUCGACCCAGCGUGGCAAAGUGGCUGUGUCUGGACUGCC [A11G A14C G36U A39G]: 0; GGCAGAGCUCCACACAGCGUGGCAAAGCGGCUGUGGCUAGACUGGA [A11C U28C C45G C46A]: 0; GGCAGAGCUCCACACAGCGUGGCAAAGUGGCUAUGGCUAGACGGGC [A11C G33A U43G C45G]: 0.01. Consider GGCAGAGCUCGACACAGCGUGGCGAAGUGGCUGUGGCUAGACUGAC [A11G A24G C45A], for which the self-cleavage came to 0. Next, GGCAGAGCUCCACACAGCGUGGCAAAGUGGCUGUGUUUAGACUGCC [A11C G36U C37U]: 0.01; GGCAGAGCUCGACCCAUCGUGGCAGAGUGGCUGUGGCUAGACUGCC [A11G A14C G17U A25G]: 0.02; GGCAGAGCUCGACAAAGCGUGGCAAAGUGGCUCGGGUUAGACUGCC [A11G C15A G33C U34G C37U]: 0.01.
